Results as given in the RNAGym collection of RNA variant scans (doi:10.1073/pnas.2313332121).
This sample is rich in variants without activity.

B1: TPR 5TU (parent)
chain: GGAUCUUCUCGAUCUAACAAAAAAGACAAAUCUGCCACAAAGCUUGAGAGCAUCUUCGGAUGCAGAGGCGGCAGCCUUCGGUGGCGCGAUAGCGCCAACGUUCUCAACUAUGACACGCAAAACGCGUGCUCCGUUGAAUGGAGUUUAUCAUG

Variants of: B1
Test: polymerase ribozyme fitness, log enrichment relative to wild type (log ratio); higher = more active; in vitro selection for triplet polymerase activity
How it was run: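 Fitness is a logarithmic measure of how a genotype enriched relative to the wild type, with replicate averages weighted by inverse variance. The logarithm uses base 2, and enrichment came from Illumina sequencing of input and output libraries. Those libraries were PCR-built, transcribed mutants of each subunit of a heterodimeric triplet polymerase ribozyme, passed through one triplicate in vitro selection round that included frozen incubation at −7 °C, gel excision of extended constructs and streptavidin-bead capture. Genotypes were kept only if they had ≥10 input reads and ≥1 read per output.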

Polymerase ribozyme fitness (log ratio), -3.35:
A47C U61C C96U

Polymerase ribozyme fitness (log ratio), -0.176:
A47C C57A

Polymerase ribozyme fitness (log ratio), ≤ -4.2:
G46C C108U
G46C A47G G50C G71C C123U G141A U148C
A47C G48C A49C A52U G81A C96A C129A U148G
G46C C54A G86A C93U C118A C129U
A47C A52C U53A C93A
A47G C85G G100U
G46U U78C C95U A110U U146A
A47G G80C C116G G117U C118G C129G
A47G G50A A52U C63A A142C
A47G G100C C118G
A47C U61A U78G U82G G88U C99A G100C C118A G141C
A47C G83C C108U
G46C U56A U77C A119C
A47U A52U C75G C76A C95A A98G A142C
A47C U56A C79G G84A A98G A142C
A47U A60G A64G C75U G92U C114U C118G
G46C G81A A107C
A47G G81A A91C A137C U148C
A47U A89G C131A
A47G C93A C96A U146A
A47C C105A C132A
G46U G80C U102C U151C
A47G A60G G65U G80U G84C
A47U A49G A98G U101A
G46C U61A C63U U82A A122G
A47G G65A A66U C87U
A47C U55A G71U G74C G84C U139G
A47G A52G C75U U78A U82C A91U C96G A98C
A47C A115C A138G
A47C U82G C96G G140C
A47C A52G G100A G141C
G46C G88C C118G G126U
G46U C131G
A47G C75G U77C C118G
A47C G68C A89U C93A G126A G140U
G46U G50C U53A C85G C118U C129A
G46U G68C G94C C116G A119G G124A
A47C G50U G58A G83U A97C C116A
A47C U82C A97U C103G A115C
A47G G58C G88A A119G C129G
A47G G62U U145C U151A
A47C A120G G140C
G46C U77G A142C
G46C C51U U55A C57U C76A C87U C93A C129G
G46C G67A
G46U G50A A64G C87G
A47C U130G
G46U U53G C54U U90A
G46U G88C A97U G136A
G46C C87A G100C A106C C116A
G46U G71A U90A C95G A138U
A47G G80U A91U A121U
G46C C69G C85A C129A
A47G U55A C79G C93U
A47C C72G
A47C C57A U102G A113G
G46C U78G C79A U144A
A47G A64C G86C C93A G136C A138U G143C
A47U A66C C76G G83A A106C
A47C A49G G50A G81C G83A U102C C108A A119U G136A
A47G A64C G70U C85U G92A U109A
G46C G50C G59U C118U G126C
G46U G84U A97U U109G
A47C G86C A91C U109G G117U U144C
G46C C54A G74C C114U A121G
A47C A97U G140U
G46C U102G A106U G152A
A47C A49U G59C A66G U78A
A47G U90G U109G C118A
A47C U55A G71C C96A U134A A137C
A47G G65A G68A G117A C125A
A47C U78A
A47C A49C G88A U139A U148A
A47C G48A U53G C85U A106C C118A A142U G143C

Polymerase ribozyme fitness (log ratio), 0.381:
A47G G59A

Polymerase ribozyme fitness (log ratio), -0.139:
A47G U55A C116G

Polymerase ribozyme fitness (log ratio), -4.13:
A47C C51U U53A C54A G141U

Polymerase ribozyme fitness (log ratio), 0.0194:
G46U A98G

Polymerase ribozyme fitness (log ratio), -1.94:
A47C A52U U82A A120U

Polymerase ribozyme fitness (log ratio), -1.37:
A47C C63A G83A

Polymerase ribozyme fitness (log ratio), -3.85:
G46C G48A A73U U77C G80U C87U
